# Experimental data taken from PubChem BioAssay AID449756 (Broad Institute, 2010).
# In all, about 2,300 compounds were measured (“protection from cell death (ATP increase)”: median about -18, highest 2% from about 170 on). This is one part of the list. Measured potencies and affinities stand elsewhere. Entries without a call are filed as inconclusive in the source.
# Test: beta cell apoptosis inhibitors, cytokine rescue, dose response, luminescence, retest (AID 449756)
# Details: INS-1E rat beta cells, ATP luminescence 48 h; at 26 µM (top of the series) unless noted
row,SMILES,protection from cell death (ATP increase)
1,O=C(CCCCCCCCCCC(=O)NCc1cccnc1)NCc1cccnc1,165%
2,CCN1CCN(Cc2ccc(NC(=O)c3ccc(C)c(NC(=O)C(=O)c4c[nH]c5ccccc45)c3)cc2C(F)(F)F)CC1,-18.8% [at 12 µM]
3,COc1ccc(C(C(=O)NC2CCCCC2)N(C(=O)CCl)c2cccc(Cl)c2)cc1 (stereo unspecified),-108% [at 6 µM]
4,COc1ccccc1-[n+]1c(C)cc(/C=C2\Sc3ccccc3N2C)cc1C,164%
5,O=C(NCc1cccnc1)c1ccc(NC(=O)c2ccc(Br)cc2)cc1,164%
6,O=C(CCC1CCCC1)Nc1ccc(C(=O)NCc2cccnc2)cc1,158%
7,O=c1c(Cl)c(Cl)cnn1Cc1ccc(F)cc1,-70.5% [at 12 µM]
8,O=C(CCCCC(=O)Nc1ccc(F)cc1F)Nc1ccc(F)cc1F,-41.8%
9,CC(C)(C)c1ccc(C(=O)Nc2ccc(C(=O)NCc3cccnc3)cc2)cc1,154%
10,CCCCCCCCCn1c2c(c(=N)c3c1CCC3)CCC2,150%
11,CCN1/C(=C/C=C/c2sc3ccccc3[n+]2CC)Sc2ccccc21,150%
12,c1cc(-c2noc(CC3CCCCC3)n2)ccn1,-18.3%
13,Cc1cc(C)cc(OCCCn2ccnc2)c1,-26.9%
14,CC(C(c1cccs1)c1c(N)n(C)c(=O)n(C)c1=O)[N+](=O)[O-] (stereo unspecified),-48.7% [at 12 µM]
15,COc1ccc(S(=O)(=O)N2CCNCC2)cc1OC,-42.8%
16,CCCC1(c2ccccc2)NC(=O)N(CC(=O)Nc2cc(C)ccc2OC)C1=O (stereo unspecified),-27.1%

row,SMILES,protection from cell death (ATP increase)
1,O=C(NCc1cccnc1)c1ccc(NC(=O)c2cccc([N+](=O)[O-])c2)cc1,149%
2,CCCCCCCCCCn1c2c(c(=N)c3c1CCC3)CCC2,156%
3,COc1ccc(N2CC(C(=O)N3CCN(c4ccccc4F)CC3)CC2=O)cc1 (stereo unspecified),-28%
4,CCN1/C(=C/C(C)=C/c2sc3ccccc3[n+]2CC)Sc2ccccc21,160%
5,C=CC[n+]1c(/C=C2\C=Cc3cc(C)ccc3N2CC)ccc2ccccc21,142%
6,O=C(NCCOc1cccnc1)c1ccc(OC2CCN(Cc3ccccn3)CC2)cc1,167%
7,COc1ccc(/C=N/N2CCN(Cc3ccccc3)CC2)cc1,-0.449%
8,CC(=O)SC1CC(=O)N(c2c(C)cccc2C)C1=O (stereo unspecified),-60.2%
9,Cc1cccnc1CCNCc1c(C(=O)N2C[C@@H](C)O[C@@H](C)C2)nc2ccc(Cl)cn12,-24.4%
10,Cc1cc(N2CCOCC2)nc(N)n1,-25.8%
11,COc1ccc(C(=O)CSc2n[nH]c(=O)n2Cc2ccco2)cc1,-26.1%
12,COc1ccc(-[n+]2c(C)cc(/C=C3\Sc4ccccc4N3C)cc2C)cc1,162%
13,CCN(CC)C(=O)C1CCCN(C(=S)Nc2cccc3ccccc23)C1 (stereo unspecified),-45.6%
14,Cc1ccc(NC(=O)c2ccc([N+](=O)[O-])o2)cc1S(=O)(=O)N1CCOCC1,-23.4% [at 12 µM]
15,Cc1cccc(C)c1NC(=O)CNC(=O)c1c(C)nn(C)c1Cl,-41.5%
